IC50, z-score and AC50 data for 13 compounds are collected here from PubChem BioAssay (NCATS).

Values joined by “and” are separate entries in the source; they are usually repeats but may differ in a detail not shown here. Equal values may be shown once. The list shows a part of the results. Further columns of the screen follow, without active or inactive calls. For part of these data: Most of these compounds were active or inconclusive in the main read-out, so they are no random draw. Potencies come from curve fits of mixed quality, noted in brackets.

Assay [1] concerns the target Histamine N-methyltransferase (Homo sapiens) (UniProt P50135). Nature of the assay: Confirmatory Screen for Target Class Profiling of Small Molecule Inhibitors of Methyltransferases (AID 1745852).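 Further: inhibitor potency for blocking SAH production.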 The conditions noted are these: MTase-Glo luminescence, SAH detection, recombinant enzyme; measured here: HNMT inhibition potency.
Chain of UniProt P50135 (P50135 whole entry, looked up): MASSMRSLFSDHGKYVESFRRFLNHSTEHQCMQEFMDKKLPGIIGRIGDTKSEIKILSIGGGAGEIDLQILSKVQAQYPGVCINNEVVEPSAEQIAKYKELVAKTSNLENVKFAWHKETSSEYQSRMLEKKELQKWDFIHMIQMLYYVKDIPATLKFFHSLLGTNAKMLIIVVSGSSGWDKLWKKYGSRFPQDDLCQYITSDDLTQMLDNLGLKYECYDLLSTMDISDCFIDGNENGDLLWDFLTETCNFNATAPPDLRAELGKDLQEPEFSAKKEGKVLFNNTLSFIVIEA
The nature of assay [2]: qHTS for identification of novel therapeutic agents for treatment of microphthalmiaassociated transcription factor (MiT) renal cell carcinoma (RCC) (AID 1963991). The following applies: CellTiter-Glo, 48 h; for z-score: stronger effect = lower value. An outline of the steps:
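Viability of three TFE3-fusion renal carcinoma lines measured by CellTiter-Glo after 48 h treatment with each of 1912 compounds at 11 concentrations. Responses scaled between DMSO (100%) and empty wells (0%) before curve fitting.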

Assay [3] is described as follows: S16 Schwann cell PMP22 intronic element beta-lactamase assay (AID 624044). Further: nearly all actives have a fitted effect of over 15% in size. The conditions noted are these: S16 rat Schwann cells, PMP22 element beta-lactamase FRET, 24 h; measured here: 460 nm blue channel. The method, boiled down: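 Beta-lactamase reporter under a PMP22 intronic regulatory element in stable S16 rat Schwann cells; 24 h compound exposure. 460 nm blue signal normalized between DMSO (0%) and potassium clavulanate, with 535 nm FRET tracking viability; curves classed by r2 and response.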

Assay [4] in a line: qHTS drug screen for cell cycle checkpoint inhibitors in PARPi-resistant BRCA-mutant ovarian cancer cell lines. (AID 1963452). The conditions noted are these: PEO1/OlaR viability, CellTiter-Glo luminescence, 96 h. The method, boiled down:
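PEO1, PEO4 and PEO1/OlaR ovarian cancer cells, 600 per well, exposed 96 h at 37C to a dilution series. Viability read by CellTiter-Glo luminescence, normalized to DMSO and empty wells; activity summarized as Z-AUC.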
On the technique in general: qHTS replaces the single test concentration by a dilution series.

Assay [5] deals with Phenylethanolamine N-methyltransferase (Homo sapiens) (UniProt P11086). As to the kind of experiment: Confirmatory Screen for Target Class Profiling of Small Molecule Inhibitors of Methyltransferases (AID 1745852).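 Further: inhibitor potency for blocking SAH production.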 The following applies: MTase-Glo luminescence, SAH detection, recombinant enzyme; measured here: PNMT inhibition potency.
Chain of UniProt P11086 (P11086 whole entry, looked up): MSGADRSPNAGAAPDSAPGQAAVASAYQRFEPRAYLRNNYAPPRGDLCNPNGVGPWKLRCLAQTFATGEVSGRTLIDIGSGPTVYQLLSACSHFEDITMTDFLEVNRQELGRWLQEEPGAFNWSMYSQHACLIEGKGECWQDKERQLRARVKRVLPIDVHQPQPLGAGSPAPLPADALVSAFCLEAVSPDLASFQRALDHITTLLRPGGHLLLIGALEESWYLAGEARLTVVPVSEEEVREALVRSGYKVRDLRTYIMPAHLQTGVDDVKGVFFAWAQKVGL
Assay [6] can be described thus: qHTS Assay for Modulators of Human Peripheral Myelin Protein 22 (PMP22) Expression/Activity (AID 1967). The following applies: Cell-based PMP22 reporter, dual-color luciferase ratio. An outline of the steps: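 Readout is the corrected green/red luminescence ratio after 24 h compound exposure, normalised to untreated cells (0%). Engineered MSC80 mouse Schwann cells express green luciferase from the mouse Pmp22 promoter and red luciferase from EF-alpha as internal control.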

The nature of assay [7]: qHTS Validation Assay to Find Inhibitors of Chronic Active B-Cell Receptor Signaling (AID 485345). The conditions noted are these: ABC-DLBCL cells, chronic BCR signaling reporter. An outline of the steps: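 TMD8 ABC-DLBCL cells with dox-inducible green luciferase–IκBα fusion and red native luciferase; compounds 46 uM–3 nM, 4 h at 37C with doxycycline in 0.5% FBS IMDM. Green/red ratio normalized to basal and 10 uM MG-132.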

Where [8] appears, read: TFE3-RCC UOK109 viability, measured here: UOK109 Z-AUC.
[9] abbreviates: TFE3-RCC viability, measured here: UOK124 Z-AUC.
Where [10] appears, read: TFE3-RCC viability, measured here: UOK145 Z-AUC.
Where [11] appears, read: measured here: PEO1 parental viability.
The mark [12] stands for this setting: TFE3-RCC viability, measured here: UOK124 cell viability.
Setting [13] is: TFE3-RCC viability, measured here: UOK145 cell viability.
Tags describe the fitted curve by direction and shape.

A word on the IC50: it is the concentration that gives 50% inhibition. With `Cc1ccc2c(c1)c1c(n2CCc2ccc(C)nc2)CCN(C)C1`, the IC50 in assay [1] was 21.5 µM [falling, partial curve]. In addition, the z-score in assay [2] (setting [8]) was found to be 0.257; in assay [2] (setting [9]), 0.344; in assay [2] (setting [10]), 0.122.

As a reminder, the AC50 is the midpoint of the concentration-response curve, whichever way the signal moves. As for `NC1=NCC2c3ccccc3Cc3ccccc3N12` (stereo not drawn), in assay [3], the AC50 is 251 nM [falling, full curve, poor fit]. The 50% inhibitory concentration (IC50) in assay [1] was 21.7 µM [falling, single point].

`NC[C@@](O)(c1ccc(Cl)cc1)c1ccc(-c2cn[nH]c2)cc1`: in assay [1], the IC50 is 12.1 µM [falling, partial curve]. Further, the AC50 in assay [4] (setting [11]) was 15.5 µM [falling, partial curve]; in assay [4] (measured here: PEO4 viability), 8.71 µM [falling, partial curve].

`CCCS(=O)(=O)c1nc(NC2CC2)cc(-c2ccc3c(ccn3C3CC(C)(C)NC(C)(C)C3)c2)n1`: the IC50 in assay [1] was 6.38 µM [falling, partial curve]. Besides, the concentration at half-maximal activity (AC50) is 9.17 µM [falling, single point] in assay [4] (setting [11]) and 5.15 µM [falling, single point] in assay [4] (measured here: PEO4 viability).

Consider `COc1cc(N2CCC(N3CCN(C)CC3)CC2)ccc1Nc1ncc(Cl)c(Nc2ccccc2S(=O)(=O)C(C)C)n1`, for which the IC50 in assay [1] is 19.2 µM [falling, partial curve]. In addition, the AC50 in assay [4] (setting [11]) is 2.19 µM [falling, full curve]; in assay [4] (measured here: PEO4 viability), 1.74 µM [falling, full curve]; in assay [2] (setting [12]) it was 5.9 µM [falling, full curve]; in assay [2] (setting [13]), 10.5 µM [falling, partial curve, poor fit].

On to `CN1CCc2c(c3ccccc3n2Cc2ccc(C(=O)NO)cc2)C1`, for which the IC50 in assay [1] is 15.2 µM [falling, partial curve]. For the same compound, the AC50 in assay [4] (setting [11]) is 24.5 µM [falling, single point]; in assay [4] (measured here: PEO4 viability), 19.5 µM [falling, partial curve, poor fit]; in assay [2] (setting [12]) it was 20.9 µM [falling, partial curve]; in assay [2] (setting [13]) it was 33.2 µM [falling, single point]. The figures for the z-score in assay [2] (setting [8]), in assay [2] (setting [9]) and in assay [2] (setting [10]) were -0.419, 0.0836 and -0.265, respectively.

With `CC(C)c1cc(CNc2nc(Nc3cc(C4CC4)[nH]n3)cc(N3CCN(C)CC3)n2)on1`, the half-inhibitory concentration (IC50) in assay [1] is 17.1 µM [falling, partial curve]. In addition, the AC50 in assay [4] (setting [11]) is 1.38 µM [falling, full curve]; in assay [4] (measured here: PEO4 viability), 0.219 µM [falling, full curve].

Turning to `Cn1cc(-c2cnn3c(N)c(Br)c([C@H]4CCCNC4)nc23)cn1`, the IC50 was 7.64 µM [falling, partial curve] in assay [1] and 15.2 µM [falling, partial curve] in assay [5]. The AC50 in assay [4] (setting [11]) is 21.9 µM [falling, single point] and 1.55 µM [falling, partial curve, poor fit]; in assay [4] (measured here: PEO4 viability) it was 15.5 µM [falling, partial curve]; in assay [2] (setting [12]), 0.264 µM [falling, full curve, poor fit]; in assay [2] (setting [13]), 4.18 µM [falling, partial curve]. For the same compound, the z-score in assay [2] (setting [8]) was 0.0336; in assay [2] (setting [9]) it was -0.636; in assay [2] (setting [10]) it was -0.466.

Consider `COc1ccc2c(Oc3ccc(NC(=O)c4c(C)n(CC(C)(C)O)n(-c5ccccc5)c4=O)cc3F)ccnc2c1`, for which, in assay [1], the 50% inhibitory concentration (IC50) is 6.07 µM [falling, full curve]. For the same compound, the AC50 in assay [4] (setting [11]) is 19.5 µM [falling, partial curve]; in assay [4] (measured here: PEO4 viability), 19.5 µM [falling, single point]; in assay [2] (setting [12]) it was 26.4 µM [falling, single point]; in assay [2] (setting [13]), 29.6 µM [falling, single point]. The z-score in assay [2] (setting [8]) was 0.0821; in assay [2] (setting [9]), 0.122; in assay [2] (setting [10]), -1.18.

On to `COC(C)(C)CCn1nc(Nc2c(C)cccc2C)c2cnc(Nc3ccc(OCCN4CCCC4)c(F)c3)nc21`, for which the IC50 in assay [1] is 13.6 µM [falling, partial curve]. The AC50 is 3.89 µM [falling, partial curve] in assay [4] (setting [11]) and 8.71 µM [falling, partial curve] in assay [4] (measured here: PEO4 viability).

For the compound `CCN(CC)CCCCCCCCOC(=O)c1cc(OC)c(OC)c(OC)c1`, the AC50 in assay [6] (measured here: green reporter channel AC50, mouse Pmp22 promoter in mouse Schwann cells) is 42.6 µM [falling, partial curve]; in assay [6] (measured here: red reporter channel AC50, EF-alpha promoter control reporter in MSC80 mouse Schwann cells) it was 37.9 µM [falling, partial curve]; in assay [7] (measured here: CBG/CBR ratio read-out), 13 µM [falling, partial curve]; in assay [7] (measured here: CBR control luciferase (viability counter)) it was 18.4 µM [rising, single point]. Moreover, in assay [1], the 50% inhibitory concentration (IC50) was 21.7 µM [falling, partial curve].

`Cc1noc(C)c1-c1cc2c(cc(C)n2CCN(C)C)c(Nc2ccncn2)n1`: the IC50 in assay [1] was 35 µM [falling, partial curve]; in assay [5], 39.3 µM [falling, partial curve, poor fit].

In the case of `Clc1ccc(C2(c3ccc(-c4cn[nH]c4)cc3)CCNCC2)cc1`, the IC50 in assay [1] was 0.482 µM [falling, full curve]. The AC50 in assay [4] (setting [11]) was 17.4 µM [falling, single point]; in assay [4] (measured here: PEO4 viability), 12.3 µM [falling, partial curve]; in assay [2] (setting [12]), 23.5 µM [falling, partial curve]; in assay [2] (setting [13]), 26.4 µM [falling, single point]. Moreover, the z-score in assay [2] (setting [8]) was 1.03; in assay [2] (setting [9]), -2.48; in assay [2] (setting [10]), -1.06.
